Some of the results follow. Values were computed here from the reads of four pooled replicates and scatter widely.
What follows are sequences tested against T1, Pho4 (S. cerevisiae) (UniProt P07270) (assay: relative binding free energy (BET-seq); higher = weaker binding). Conditions: reference: library average.
T1 sequence: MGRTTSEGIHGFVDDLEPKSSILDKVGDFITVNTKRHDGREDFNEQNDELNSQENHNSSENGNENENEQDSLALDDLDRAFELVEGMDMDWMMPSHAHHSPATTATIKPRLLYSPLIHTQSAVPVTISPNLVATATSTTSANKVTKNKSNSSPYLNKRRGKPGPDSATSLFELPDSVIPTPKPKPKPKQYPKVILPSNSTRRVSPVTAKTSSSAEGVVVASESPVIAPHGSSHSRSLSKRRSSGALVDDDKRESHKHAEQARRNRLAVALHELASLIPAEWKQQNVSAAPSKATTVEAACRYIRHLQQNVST
In the case of GAGGTCACGTGGGGCT, the “relative binding free energy” value is reported as 0.11 kcal/mol.
TACGGCACGTGCGTTT was tested, and the “relative binding free energy” value was -0.12 kcal/mol.
With GGTTTCACGTGATAGT the “relative binding free energy” value was 0.43 kcal/mol.
For ATTGTCACGTGCTGGA, the “relative binding free energy” value was 0.08 kcal/mol.
For GCTATCACGTGTGGGA, the “relative binding free energy” value was 0.13 kcal/mol.
For AGCGTCACGTGGGAAT, the “relative binding free energy” value was 0.07 kcal/mol.
With ATGTACACGTGGTGCG the “relative binding free energy” value was -0.1 kcal/mol.
TAGATCACGTGTTCTT was tested, and the “relative binding free energy” value was 0.08 kcal/mol.
For GAGTCCACGTGTGGTT, the “relative binding free energy” value was 0.15 kcal/mol.
GGTCTCACGTGGCTTT was tested, and the “relative binding free energy” value was 0.24 kcal/mol.
For GATATCACGTGGTTAT, the “relative binding free energy” value was 0.1 kcal/mol.
In the case of GTTGCCACGTGGTGGC, the “relative binding free energy” value is reported as 0 kcal/mol.
With CGAGGCACGTGGTTGT the “relative binding free energy” value was -0.04 kcal/mol.
TATGTCACGTGCGTTA was tested, and the “relative binding free energy” value was 0.01 kcal/mol.
GCGAGCACGTGGTGTT was tested, and the “relative binding free energy” value was -0.15 kcal/mol.
In the case of ACTGGCACGTGTGATG, the “relative binding free energy” value is reported as 0.08 kcal/mol.
In the case of CAGGGCACGTGTTAGC, the “relative binding free energy” value is reported as 0.11 kcal/mol.
ATGTTCACGTGTCGTT was tested, and the “relative binding free energy” value was 0.3 kcal/mol.
For TTTCGCACGTGAAATT, the “relative binding free energy” value was 0.37 kcal/mol.
In the case of GCTTGCACGTGGCGGA, the “relative binding free energy” value is reported as -0.04 kcal/mol.
In the case of AGGTCCACGTGTTTGG, the “relative binding free energy” value is reported as -0.04 kcal/mol.
For GTTGTCACGTGTTCGC, the “relative binding free energy” value was 0.05 kcal/mol.
For TTATTCACGTGATGGG, the “relative binding free energy” value was 0.35 kcal/mol.
In the case of TGCTGCACGTGGGTGT, the “relative binding free energy” value is reported as -0.09 kcal/mol.
In the case of TTTGCCACGTGGTTGA, the “relative binding free energy” value is reported as -0.13 kcal/mol.
In the case of AAGTGCACGTGAGTGG, the “relative binding free energy” value is reported as 0.2 kcal/mol.
TCATGCACGTGTATTT was tested, and the “relative binding free energy” value was 0.13 kcal/mol.
For TGTATCACGTGCAAGG, the “relative binding free energy” value was 0.13 kcal/mol.
In the case of ATAGTCACGTGGTATA, the “relative binding free energy” value is reported as 0.01 kcal/mol.
TAGGACACGTGATGTT was tested, and the “relative binding free energy” value was 0.19 kcal/mol.
In the case of TTGCTCACGTGTTATG, the “relative binding free energy” value is reported as 0.22 kcal/mol.
With ATTTTCACGTGCGTTA the “relative binding free energy” value was 0.22 kcal/mol.
For ATTAACACGTGTGGAA, the “relative binding free energy” value was 0.12 kcal/mol.
In the case of TCGTGCACGTGGAGGA, the “relative binding free energy” value is reported as 0.1 kcal/mol.
For GGAGACACGTGTTATT, the “relative binding free energy” value was -0.08 kcal/mol.
With AGCGTCACGTGGTGAT the “relative binding free energy” value was 0.05 kcal/mol.
ATTGCCACGTGGTGTT was tested, and the “relative binding free energy” value was -0.14 kcal/mol.
With CTGTACACGTGAGTTG the “relative binding free energy” value was 0.29 kcal/mol.
TTATGCACGTGAAGCG was tested, and the “relative binding free energy” value was 0.27 kcal/mol.
With ATTCTCACGTGGGGGC the “relative binding free energy” value was 0.15 kcal/mol.
GTTGTCACGTGCGTTC was tested, and the “relative binding free energy” value was 0 kcal/mol.
AGTTTCACGTGCAGTC was tested, and the “relative binding free energy” value was 0.43 kcal/mol.
With TTATTCACGTGTACGA the “relative binding free energy” value was 0.34 kcal/mol.
For GTTGCCACGTGGGATT, the “relative binding free energy” value was -0.16 kcal/mol.
For AGTTACACGTGATTTA, the “relative binding free energy” value was 0.1 kcal/mol.
In the case of AGTGTCACGTGCTTGT, the “relative binding free energy” value is reported as 0.06 kcal/mol.
With TGCGTCACGTGTTCTT the “relative binding free energy” value was 0.13 kcal/mol.
With GGTTGCACGTGTTATG the “relative binding free energy” value was 0.1 kcal/mol.
GGGAACACGTGCGAGG was tested, and the “relative binding free energy” value was 0.01 kcal/mol.
For TGTATCACGTGGCAAG, the “relative binding free energy” value was 0.08 kcal/mol.
TGTGCCACGTGTTTGC was tested, and the “relative binding free energy” value was -0.09 kcal/mol.
For TGGATCACGTGCGAGT, the “relative binding free energy” value was 0.27 kcal/mol.
In the case of ATCGACACGTGCGGGG, the “relative binding free energy” value is reported as -0.06 kcal/mol.
In the case of GGGCGCACGTGGGTTT, the “relative binding free energy” value is reported as -0.07 kcal/mol.
In the case of TATCTCACGTGTAATT, the “relative binding free energy” value is reported as 0.27 kcal/mol.
TAAGCCACGTGGGTTT was tested, and the “relative binding free energy” value was -0.14 kcal/mol.
With CTTTTCACGTGGCGTG the “relative binding free energy” value was 0.15 kcal/mol.
TGGCACACGTGGGATC was tested, and the “relative binding free energy” value was 0.2 kcal/mol.
ATTGGCACGTGGACGG was tested, and the “relative binding free energy” value was -0.12 kcal/mol.
AGCGACACGTGGAGGT was tested, and the “relative binding free energy” value was -0.06 kcal/mol.
For AATGGCACGTGGGCGA, the “relative binding free energy” value was -0.16 kcal/mol.
With GGGTCCACGTGTAGGA the “relative binding free energy” value was 0.05 kcal/mol.
With GTTTTCACGTGAGTGT the “relative binding free energy” value was 0.47 kcal/mol.
In the case of ATCGGCACGTGGCGAG, the “relative binding free energy” value is reported as -0.13 kcal/mol.
With TCTGGCACGTGGGTCA the “relative binding free energy” value was -0.36 kcal/mol.
With GGGGACACGTGTAATT the “relative binding free energy” value was 0.18 kcal/mol.
In the case of AAGAGCACGTGGTTCG, the “relative binding free energy” value is reported as -0.16 kcal/mol.
CGAGGCACGTGTGTTG was tested, and the “relative binding free energy” value was -0.07 kcal/mol.
With CGGGGCACGTGGGAGA the “relative binding free energy” value was -0.18 kcal/mol.
With ATATACACGTGTGAAG the “relative binding free energy” value was 0.17 kcal/mol.
In the case of TCGGACACGTGGGGGC, the “relative binding free energy” value is reported as -0.05 kcal/mol.
With TGAGGCACGTGTGCGA the “relative binding free energy” value was -0.18 kcal/mol.
With GGTGTCACGTGAAGGT the “relative binding free energy” value was 0.26 kcal/mol.
With TGAATCACGTGAGTAG the “relative binding free energy” value was 0.42 kcal/mol.
In the case of TTGGTCACGTGGGTGG, the “relative binding free energy” value is reported as 0.04 kcal/mol.
CGGCGCACGTGGGAGG was tested, and the “relative binding free energy” value was -0.2 kcal/mol.
GTTTTCACGTGTGTTA was tested, and the “relative binding free energy” value was 0.31 kcal/mol.
TCAGGCACGTGTTGAG was tested, and the “relative binding free energy” value was -0.09 kcal/mol.
For ATGTTCACGTGCTGCT, the “relative binding free energy” value was 0.1 kcal/mol.
With TAAGCCACGTGGGGGG the “relative binding free energy” value was -0.19 kcal/mol.
In the case of TGTGTCACGTGTTCGA, the “relative binding free energy” value is reported as -0.1 kcal/mol.
In the case of GGCTTCACGTGAGGTA, the “relative binding free energy” value is reported as 0.41 kcal/mol.
For TTTGACACGTGGGAGT, the “relative binding free energy” value was -0.08 kcal/mol.
TTTATCACGTGGTGTA was tested, and the “relative binding free energy” value was 0.1 kcal/mol.
In the case of ATCAGCACGTGGAGGT, the “relative binding free energy” value is reported as -0.07 kcal/mol.
For AGTGGCACGTGCGTAG, the “relative binding free energy” value was -0.19 kcal/mol.
TAGTGCACGTGGATTG was tested, and the “relative binding free energy” value was -0.08 kcal/mol.
For ATAGCCACGTGTGGCG, the “relative binding free energy” value was 0.01 kcal/mol.
For GAGGTCACGTGAGGGC, the “relative binding free energy” value was 0.24 kcal/mol.
With TGGAACACGTGGCCGG the “relative binding free energy” value was -0.06 kcal/mol.
AGGCTCACGTGGGATT was tested, and the “relative binding free energy” value was 0.2 kcal/mol.
With CAGGTCACGTGGTGTT the “relative binding free energy” value was -0.04 kcal/mol.
With TTTATCACGTGTTAAG the “relative binding free energy” value was 0.26 kcal/mol.
With ATGAACACGTGGGTGG the “relative binding free energy” value was -0.08 kcal/mol.
For TATAGCACGTGATAGT, the “relative binding free energy” value was -0.04 kcal/mol.
For GACGTCACGTGGAGGG, the “relative binding free energy” value was 0 kcal/mol.
With GGATACACGTGTGCTG the “relative binding free energy” value was 0.16 kcal/mol.
For ATAATCACGTGGGTGC, the “relative binding free energy” value was 0.04 kcal/mol.
In the case of TATATCACGTGACTGT, the “relative binding free energy” value is reported as 0.27 kcal/mol.
TCATTCACGTGTGTCG was tested, and the “relative binding free energy” value was 0.3 kcal/mol.
For GTCAGCACGTGGGAAA, the “relative binding free energy” value was 0.07 kcal/mol.
With AAATGCACGTGGGGGC the “relative binding free energy” value was -0.15 kcal/mol.
In the case of AAGAACACGTGGTGAG, the “relative binding free energy” value is reported as 0.03 kcal/mol.
AGATTCACGTGGTCTT was tested, and the “relative binding free energy” value was 0.1 kcal/mol.
TGTAACACGTGTTGTA was tested, and the “relative binding free energy” value was -0.04 kcal/mol.
With TCCGTCACGTGGGAGG the “relative binding free energy” value was -0.04 kcal/mol.
In the case of GGGGACACGTGTTTCG, the “relative binding free energy” value is reported as -0.03 kcal/mol.
In the case of TCATACACGTGTGGGA, the “relative binding free energy” value is reported as 0.26 kcal/mol.
With GTGGGCACGTGTGATG the “relative binding free energy” value was 0.05 kcal/mol.
In the case of TTTTTCACGTGAACTG, the “relative binding free energy” value is reported as 0.31 kcal/mol.
In the case of AGACTCACGTGTGTGG, the “relative binding free energy” value is reported as 0.18 kcal/mol.
With ATGACCACGTGTTTGT the “relative binding free energy” value was -0.06 kcal/mol.
In the case of TTGGACACGTGGCTGA, the “relative binding free energy” value is reported as 0 kcal/mol.
In the case of ATTGGCACGTGCGTGG, the “relative binding free energy” value is reported as -0.26 kcal/mol.
In the case of GTGTTCACGTGGCCGT, the “relative binding free energy” value is reported as 0.24 kcal/mol.

Reference: the BET-seq Pho4 binding data (Le et al. 2018)
